According to paper PMC4336329 (PLoS ONE, 2015):
Among all 310,000 compounds or so, about 14,000 (4.5%) showed an effect of 50% or more. The effect is printed as a negative number. This is one part of the list.

These compounds were tested against human ether-à-go-go-related gene (hERG) potassium channel (human, UniProt Q12809) (assay: primary screen, population patch clamp on CHO cells stably expressing hERG).
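Also: peak tail current of the secondary pulse compared with the same well before compound.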

human ether-à-go-go-related gene (hERG) potassium channel, sequence (Q12809 whole entry, looked up): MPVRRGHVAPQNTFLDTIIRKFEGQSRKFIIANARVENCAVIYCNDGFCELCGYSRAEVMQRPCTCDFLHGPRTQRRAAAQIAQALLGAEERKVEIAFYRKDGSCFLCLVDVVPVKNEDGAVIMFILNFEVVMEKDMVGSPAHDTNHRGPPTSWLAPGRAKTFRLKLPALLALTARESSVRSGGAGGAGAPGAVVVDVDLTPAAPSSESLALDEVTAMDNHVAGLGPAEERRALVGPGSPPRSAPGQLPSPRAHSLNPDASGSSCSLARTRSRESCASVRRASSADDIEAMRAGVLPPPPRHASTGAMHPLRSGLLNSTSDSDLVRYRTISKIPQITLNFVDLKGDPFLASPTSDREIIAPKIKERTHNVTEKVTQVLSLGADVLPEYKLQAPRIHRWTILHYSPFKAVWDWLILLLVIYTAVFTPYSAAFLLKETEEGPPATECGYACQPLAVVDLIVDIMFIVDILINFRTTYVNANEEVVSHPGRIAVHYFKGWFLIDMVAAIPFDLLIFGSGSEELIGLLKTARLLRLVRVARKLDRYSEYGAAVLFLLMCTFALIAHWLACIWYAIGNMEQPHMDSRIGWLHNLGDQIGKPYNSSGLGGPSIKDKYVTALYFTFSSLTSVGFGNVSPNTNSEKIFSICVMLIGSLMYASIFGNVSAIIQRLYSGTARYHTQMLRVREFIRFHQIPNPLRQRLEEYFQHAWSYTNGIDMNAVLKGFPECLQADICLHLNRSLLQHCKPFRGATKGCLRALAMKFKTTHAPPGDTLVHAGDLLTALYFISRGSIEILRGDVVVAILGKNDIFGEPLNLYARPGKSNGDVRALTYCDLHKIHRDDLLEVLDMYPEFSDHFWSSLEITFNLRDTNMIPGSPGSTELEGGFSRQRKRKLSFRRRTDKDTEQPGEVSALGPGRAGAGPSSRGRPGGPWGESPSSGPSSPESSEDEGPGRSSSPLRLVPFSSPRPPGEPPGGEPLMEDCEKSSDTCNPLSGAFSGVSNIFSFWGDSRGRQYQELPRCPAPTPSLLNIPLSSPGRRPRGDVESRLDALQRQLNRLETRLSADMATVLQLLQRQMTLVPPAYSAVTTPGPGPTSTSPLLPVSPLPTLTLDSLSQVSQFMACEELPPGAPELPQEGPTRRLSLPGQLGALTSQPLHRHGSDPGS

| SMILES | hERG current change (%, negative = inhibition) at 10uM |
| --- | --- |
| CCc1ccc(O)c(-c2cc(C(=O)Nc3cccnc3)[nH]n2)c1 | 3.19% |
| Fc1cc(Cl)c(OCc2noc(-c3ccsc3)n2)c(Cl)c1 | 6.81% |
| CCOC(=O)c1c(NC(=O)C2CCCCC2C(=O)O)sc2c1CCCCC2 (stereo not shown) | 9.59% |
| COc1cc(NC(=S)Nc2ccc(N(C)C(C)=O)cc2)cc(OC)c1 | 25.7% |
| COc1ccccc1C(C(=O)NCc1ccc(F)cc1)N(C(=O)c1csnn1)C1CC1 (stereo not shown) | 1.84% |
| O=C(CNC(=O)c1ccccc1F)N/N=C/c1cccnc1 | 11.6% |
| CCOc1ccccc1NS(=O)(=O)c1ccc2oc(=O)ccc2c1 | -5.62% |
| CS(=O)(=O)Nc1ccc(C(=O)NCC2CCCO2)cc1 (stereo not shown) | 7.78% |
| Nc1nc2c(-c3ccc(Br)cc3)nnn2c2ccccc12 | 6.33% |
| O=C1NCCN(Cc2cccc(Oc3ccccc3)c2)C1CC(=O)N1CCCCO1 (stereo not shown) | -38.1% |
| COc1ccc(Br)cc1CNC(=O)CCC(=O)n1nc(C)c2ccccc21 | 17.8% |
| O=C(Nc1ccccc1)OCC1CCCO1 (stereo not shown) | 21.3% |
| CC(C)C(NC(=O)c1cccc(S(=O)(=O)N2CCOCC2)c1)C(=O)NCCc1ccccn1 (stereo not shown) | 18.1% |
| CCCn1c(N)c(C(=O)CN(C)CC(=O)Nc2ccccc2C(F)(F)F)c(=O)[nH]c1=O | -0.764% |
| COCCNc1nc2c(-c3cccc(C(F)(F)F)c3)nnn2c2ccccc12 | 18.6% |
| CCn1c(=O)cc(OCC(=O)NCCC(C)C)c2ccccc21 | 0.0582% |
| Cc1ccc(NC(=O)C2CCN(S(=O)(=O)c3cccc4nonc34)CC2)cc1 | 10.6% |
| COc1ccc2ccn(S(=O)(=O)c3ccccc3)c2c1 | 17.3% |
| CCN(CC)/C(=N\S(=O)(=O)c1ccc(F)cc1)c1ccccc1 | 8.34% |
| COc1ccc(NCc2ccccc2[N+](=O)[O-])cc1OC | -16.5% |

| SMILES | hERG current change (%, negative = inhibition) at 10uM |
| --- | --- |
| C=C(C)C1CC=C(C)/C(=N/NC(=O)COc2cccc3ccccc23)C1 (stereo not shown) | 10.9% |
| CCC1Oc2ccc(C)cc2N(CC(=O)NCCCN2CCCC2)C1=O (stereo not shown) | -34.7% |
| CCOC(=O)c1c(C)oc2cc(Br)c(OCC(N)=O)cc12 | 7.22% |
| O=C1c2ccccc2C(=O)c2cc(NC(=O)C3CC3)ccc21 | 3% |
| CCN1CCc2c(OCC(=O)Nc3ccccc3)cccc2C1=O | 5.18% |
| Cc1ccc(OCCSCc2nc3ccccc3[nH]2)cc1 | -12.6% |
| CC(=O)c1cccc(NC(=O)c2cc(C)nn2-c2ccccc2)c1 | -21% |
| O=C(O)c1ccccc1OCc1ccccc1Br | 11% |
| CCn1c(C)c(C(=O)NCCc2ccccc2)c2cc(OC)ccc21 | -49.3% |
| COc1cccc(NC(=O)CSc2ccc3nnc(-c4ccccn4)n3n2)c1 | -47.3% |
| O=C(O)C(=O)O.O=C(c1ccccc1)N1CCN(Cc2ccccc2)CC1 | -9.23% |
| COc1ccc(-c2cn(Cc3ccc4c(c3)C(=O)c3ccccc3C4=O)nn2)cc1 | -5.75% |
| COc1ccc(N2CCN(C(C)C(=O)N3CCCC3)CC2)cc1.O=C(O)C(=O)O (stereo not shown) | 9.6% |
| COCCNC(=O)C1CCC(CNS(=O)(=O)c2ccc3c(c2)CC(C)N3C(=O)C2CC2)CC1 (stereo not shown) | -5.72% |
| Cc1ccc2nc(NC(=O)C3CCN(S(=O)(=O)c4cccs4)CC3)sc2c1 | -6.05% |
| O=C(Nc1ccc2oc(-c3cccnc3)nc2c1)c1cccnc1 | 9.82% |
| CN(C)/C=C/C1=CC(=O)CC(C)(C)C1 | 5.27% |
| CC1CCN(C(=O)CCC(=O)N2CC(C)Oc3ccccc32)CC1 (stereo not shown) | -8% |
| COc1ccccc1NS(=O)(=O)c1ccc(C)c(C(=O)NCC2CCCO2)c1 (stereo not shown) | -16.7% |
| COc1ccc(C(=O)NCc2csc(C)n2)cc1OC1CCN(C(C)=O)CC1 | 15.3% |

| SMILES | hERG current change (%, negative = inhibition) at 10uM |
| --- | --- |
| COc1ccc(S(=O)(=O)Cc2ccc(C(=O)N3CCN(c4cc(Cl)ccc4C)CC3)o2)cc1 | 9.01% |
| CCn1c(O)c(/C=C/C=C/C=Nc2ccccc2)sc1=S | 2.74% |
| Cc1cc(C)cc(C(=O)N(C)C2CCCN(Cc3ccccc3F)C2)c1 (stereo not shown) | -13% |
| CC(=O)Oc1ccc(N(C(C)=O)S(=O)(=O)c2cc([N+](=O)[O-])ccc2C)cc1 | 18.5% |
| CCOc1ccc(C(=O)NNC(=O)CCNC(=O)c2ccc(Br)cc2)cc1OC | 2.32% |
| Cc1cc(=O)[nH]c(SCC(=O)NCCC2=CCCCC2)n1 | 28.2% |
| COc1ccc(OC)c(S(=O)(=O)Nc2ccc(F)cc2)c1 | -8.86% |
| COc1ccc(/C=N/NC(=O)c2ccc3c(c2)OCO3)cc1 | 18.3% |
| CC1=C(C(=O)OC(C)C)C(c2ccc(F)cc2)NC(=O)N1 (stereo not shown) | -5.4% |
| O=C(Nc1nccs1)c1ncc(Cl)c(Cl)c1Cl | 17.7% |
| O=C(NNC(=S)Nc1ccc(F)c(Cl)c1)c1ccccc1Br | 33.4% |
| CCOC(=O)CSCC(=O)Nc1c(C(=O)C2CC2)oc2ccccc12 | -43.3% |
| O=S(=O)(c1ccccc1)N1CCc2ccccc21 | 1.24% |
| COc1ccc(NC(=O)COc2ccc(Br)cc2)c(OC)c1 | 4.86% |
| Cc1ccccc1-n1c(O)cc(=O)[nH]c1=S | 10.7% |
| CC(NS(=O)(=O)c1ccc2c(c1)C(=O)c1cc(S(=O)(=O)NC(C)C(=O)O)ccc1-2)C(=O)O (stereo not shown) | 18.6% |
| O=C(Cc1cccs1)Nc1ccc(Cl)cc1 | -11.1% |
| Cc1nc2nc(SCC(=O)N3CCC4(CC3)OCCO4)nn2c(C)c1Cc1ccccc1 | -24.9% |
